# PubChem BioAssay AID652106 (National Center for Advancing Translational Sciences (NCATS), 2013)
# The campaign covered roughly 370,000 compounds. About 500 (0.14%) were called active. Inconclusive means that the source gave no clear call. Such entries were picked first, then a sample of the others. The call rests on the fitted dose curve; in most records, active means well fitted activation curve with a large enough effect; inconclusive means small, poorly fitted or top-dose-only effect; inactive means no such curve, though single readings can be large or run the other way. Potencies of inconclusive entries are left out as doubtful fits.
# Assay: qHTS of alpha-syn Inhibitors; further: nearly all actives have a fitted effect of over 65% in size; on growth rescue (activation): % of control where 0% means no effect
# Settings: Yeast expressing alpha-synuclein, BacTiter-Glo, 24 h; Potency: growth rescue unless noted; growth rescue (activation): at 46.1 µM (top of the series) unless noted
# Procedure, shortened: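 Readout is rescue of growth in alpha-synuclein-expressing yeast, so inhibitors of toxicity appear as activators. Growth after 24 hr at 30 deg C in galactose medium is quantified by luminescence.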
# Potency means the concentration at half of the fitted maximal effect; tags describe the fitted curve by direction and shape.
SMILES,Potency,growth rescue (activation)
CSCC[C@H](NC(=O)Cc1c(C)c2cc3c4c(oc3cc2oc1=O)CCCC4)C(=O)O,"inconclusive [activator, single point]",
O=C(N/N=C/c1cn(-c2ccccc2)nc1-c1cc2ccccc2o1)c1ccccc1Br,inactive,
CC(=O)NC(Cc1ccccc1)Cc1ccccc1,inactive,
CC(C)C[C@H]1COCCS(=O)(=O)N1Cc1ccc(Cl)c(Cl)c1,"inconclusive [activator, single point]",
N#CC(C#N)=C1C(=O)N(CCN2CCCCC2)c2ccccc21,inactive,
Oc1c(C(Nc2ccccn2)c2ccccc2F)ccc2cccnc12 (stereo unspecified),"inconclusive [activator, single point]",
COC1=C(OC)C(=O)C(Sc2ccc3ccccc3c2)=CC1=O,active: 14.1 µM,
COc1ccccc1CNC(=O)C1(C)CCN1C(=O)Cc1ccc(-c2ccccc2)cc1 (stereo unspecified),"inconclusive [activator, single point]",
COc1ccc(OCC(O)CNC(=O)Nc2cc(F)ccc2C)cc1 (stereo unspecified),"inconclusive [activator, single point]",
Clc1ccc(-c2ccc(C=Nc3ccc(N4CCOCC4)cc3)o2)c(Cl)c1,"inconclusive [activator, single point]",
Cc1cc(F)ccc1NC(=O)CCS(=O)(=O)c1cc2c(cc1C)NC(=O)CO2,"inconclusive [activator, single point]",
Cc1cc(NC(=O)Cn2nnc(-c3ccccc3NC(=O)c3ccccc3F)n2)no1,inactive,
O=C1CC(Sc2nnc(-c3ccccc3O)o2)C(=O)N1c1ccccc1 (stereo unspecified),"inconclusive [activator, partial curve]",
O=C(/C=C/c1ccc(Cl)cc1)NCc1cccs1,inactive,
Cc1cc(N)c(-n2cc3c(=O)n(C)c(=O)n(C)c3c2)cc1C,"inconclusive [activator, single point]",
Cc1ccc(Cn2cc(CN3CC(N(C)C)CS3(=O)=O)nn2)cc1 (stereo unspecified),"inconclusive [activator, single point]",
CC1(C(=O)NS(=O)(=O)c2ccc(Cl)s2)CCN1C(=O)c1ccccc1CCc1ccccc1 (stereo unspecified),,inconclusive: -39.7% [activator]
Cc1cnc(C(=O)OCC(=O)NC23CC4CC(CC(C4)C2)C3)cn1,inactive,
Cc1ccc(S(=O)(=O)N2CCN(C(=O)Cn3c(=O)cnc4ccccc43)CC2)cc1,"inconclusive [activator, single point]",
COC(=O)c1ccc(OCCOc2ccccc2C)cc1,inactive,
CC(C)NC(=O)CN1CCN(C(c2cc3ccccc3o2)c2nnnn2C(C)(C)C)CC1 (stereo unspecified),"inconclusive [activator, single point]",
O=C(Oc1c(-c2ccccc2)c(=O)n2c3c(cccc13)CC2)c1cccc([N+](=O)[O-])c1,"inconclusive [activator, partial curve]",
Cn1c(=O)c2cc(NC(=O)Cc3ccccc3F)ccc2n1-c1ccc(C(C)(C)C)cc1,"inconclusive [activator, single point]",
COc1cc(C(=O)Nc2ccncc2)c([N+](=O)[O-])cc1OC,"inconclusive [activator, single point]",

SMILES,Potency,growth rescue (activation)
CCN(CC)c1nc2cc(OC)ccc2cc1C#N,"inconclusive [activator, single point]",
COc1ccc2c(c1)OC(O)(C(F)(F)C(F)F)CC2=O (stereo unspecified),"inconclusive [activator, single point]",
O=C(NC1CCCCC1)C1CCN(S(=O)(=O)c2cccs2)CC1,"inconclusive [activator, single point]",
COCCCn1cc(CN2CC(N3CCN(Cc4ccccc4F)CC3)CS2(=O)=O)nn1 (stereo unspecified),inactive,
O=C(OCn1nnc2ccccc2c1=O)c1cccs1,"inconclusive [activator, single point]",
CCOC(=O)C1=CN(Cc2cccc(-c3ccc4c(c3)OCO4)c2)S(=O)(=O)N(C)C1C (stereo unspecified),"inconclusive [activator, single point]",
CC(=O)c1ccc(OCc2cc(C(=O)N3CCCCC3c3cccnc3)no2)cc1 (stereo unspecified),"inconclusive [activator, single point]",
Oc1ccc(Br)cc1C1C=C(c2ccc3c(c2)OCO3)NC(c2ccc(Br)cc2)N1 (stereo unspecified),inactive,
CCOc1cc(NC(=O)CCl)c(OCC)cc1NC(=O)CCl,inactive,
CC(=O)N1N=C(c2ccc(C)cc2)OC1c1ccc(Br)cc1 (stereo unspecified),"inconclusive [activator, single point]",
CCCNC(=O)c1onc(CSc2ccc(Cl)cc2)c1C(=O)NCC1CC1,inactive,
CCN1C(=O)c2cccc3c(S(=O)(=O)Nc4ncccc4C)ccc1c23,"inconclusive [activator, single point]",
Cc1ccc(S(=O)(=O)N2CCN(c3nc(-c4cccs4)nc4nc[nH]c34)CC2)cc1,inactive,
Cc1cc(=S)nc(-c2ccccn2)[nH]1,"inconclusive [activator, single point]",
N#CC(C#N)=C1C=CC=CN1/C(=C\c1ccccc1)C(=O)c1cccs1,"inconclusive [activator, single point]",
Oc1ccccc1N1CCN(C(c2ccccc2)c2ccccc2)CC1,"inconclusive [activator, single point]",
O=C(NCCC1=CCCCC1)C1CCN(C(=O)c2ccc(Cl)cc2)CC1,"inconclusive [activator, single point]",
Cc1cc(C)nc(NS(=O)(=O)c2ccc(NC(=O)c3cc(-c4ccccc4)nc4ccccc34)cc2)n1,"inconclusive [activator, single point]",
O=C(CNC(=O)c1ccc(F)cc1)c1ccccc1,"inconclusive [activator, single point]",
CCOC(=O)c1c(-c2ccccc2)csc1NC(=O)C(C)NCCCN1CCOCC1 (stereo unspecified),inactive,
C=C1C=C(C(F)F)n2ncc(C(=O)Nc3ccc(N(CC)CC)cc3)c2N1,"inconclusive [activator, single point]",
OC(c1ccc(F)c(F)c1)c1nc(-c2ccc(Cl)cc2)cs1 (stereo unspecified),,inconclusive: -58.8% [activator]
COC(=O)c1ccc(C(=O)OC)c(NC(=O)COC(=O)C2CCCCC2)c1,inactive,
Cc1ccc(-n2nnnc2-c2ccccc2Br)cc1,"inconclusive [activator, single point]",

SMILES,Potency,growth rescue (activation)
O=C1[C@H]2[C@@H](c3ccc(C(F)(F)F)cc3)N[C@]3(CCCN(CC4CCCCC4)C3=O)[C@H]2C(=O)N1Cc1ccccc1,"inconclusive [activator, single point]",
CCn1c(/C=C2/C(=O)N(C)c3ccccc32)nc2ccccc2c1=O,inactive,
COc1ccc(OC)c(S(=O)(=O)n2nnc3ccccc32)c1,inactive,
COc1ccccc1C(=O)NNC1=C(C(=O)C(F)(F)F)CCC1,active: 3.55 µM,
Oc1ccc(Cl)cc1C=Nc1ccc2c3c(cccc13)CC2,inactive,
Cc1ccc(NC(=O)C2(C)Cc3ccccc3C(=O)O2)c(C)c1 (stereo unspecified),"inconclusive [activator, single point]",
O=C(COc1ccc2ccccc2c1Br)N1CCOCC1,inactive,
Cc1n[nH]c2ccccc2c1=O,inactive,
CC1(C(=O)Nc2ccc(Cl)c(Cl)c2)CCN1C(=O)Cc1ccc(-c2ccccc2)cc1 (stereo unspecified),"inconclusive [activator, single point]",
Cn1c(C(=O)NCCN2CCCCCC2)cc2c(=O)n(C)c3ccccc3c21,"inconclusive [activator, single point]",
O=C(CSc1ccccc1Cl)N1CCC(c2nc3ccccc3s2)CC1,"inconclusive [activator, single point]",
Cc1cc(C(=O)CSc2nncs2)c(C)n1-c1c(C)n(C)n(-c2ccccc2)c1=O,inactive,
Cn1ncc(C(=O)Nc2ccc(OC(F)(F)F)cc2)c1-n1cccc1,inactive,
CC(=O)Nc1ccc(SCC(=O)OCC(=O)NC(=O)NCc2ccco2)cc1,"inconclusive [activator, single point]",
CCCN(CC(=O)Nc1ccccc1C)CC(=O)Nc1ccc(Br)cc1F,"inconclusive [activator, single point]",
CC(C)Oc1ccc(S(=O)(=O)N2CCCCC2)cc1NC(=O)C1=COCCO1,inactive,
Cc1cc(=O)oc2cc(NC(=O)CCOc3ccccc3)ccc12,"inconclusive [activator, single point]",
COc1cc(/C=N/NC(=O)c2cc(-c3ccco3)nc3ccccc23)cc(OC)c1O,"inconclusive [activator, single point]",
O=C(Nc1cc(C(F)(F)F)ccc1Cl)C(Sc1cccc[n+]1[O-])c1ccccc1 (stereo unspecified),"inconclusive [activator, single point]",
Cc1nc(-c2ccc(S(=O)(=O)Nc3cc(Cl)ccc3C)cc2)co1,"inconclusive [activator, single point]",
Cc1ccc(C(C)C)c(OCc2ccc(C(=O)N/N=C/c3cccc(O)c3O)cc2)c1,active: 12.6 µM,
Cc1ccc(S(=O)(=O)N2[C@@H](Cc3ccccc3)CO[C@H]2CC(=O)c2cccs2)cc1,"inconclusive [activator, single point]",
O=C(O)CCCc1ccc2ccc3cccc4ccc1c2c34,inactive,
